Source: patent publication US11634451B2, “Method for the site-specific enzymatic labelling of nucleic acids in vitro by incorporation of unnatural nucleotides” (The Scripps Research Institute, priority 2013, dated 2023)
Some of these results come from one statement about several compounds together. For at least one compound, name, drawing or mass did not settle the structure.

target: T1, Taq polymerase (Thermus aquaticus, UniProt P19821); assay: PCR-based screen and amplification of DNA containing unnatural base pairs, Taq (Example 1); type: biochemical; conditions: Taq alone, D6 template 10 pg, 24 cycles, 10 s extension
T1 construct: purchased New England Biolabs (Ipswich, Mass.)
T1 sequence (P19821 whole entry): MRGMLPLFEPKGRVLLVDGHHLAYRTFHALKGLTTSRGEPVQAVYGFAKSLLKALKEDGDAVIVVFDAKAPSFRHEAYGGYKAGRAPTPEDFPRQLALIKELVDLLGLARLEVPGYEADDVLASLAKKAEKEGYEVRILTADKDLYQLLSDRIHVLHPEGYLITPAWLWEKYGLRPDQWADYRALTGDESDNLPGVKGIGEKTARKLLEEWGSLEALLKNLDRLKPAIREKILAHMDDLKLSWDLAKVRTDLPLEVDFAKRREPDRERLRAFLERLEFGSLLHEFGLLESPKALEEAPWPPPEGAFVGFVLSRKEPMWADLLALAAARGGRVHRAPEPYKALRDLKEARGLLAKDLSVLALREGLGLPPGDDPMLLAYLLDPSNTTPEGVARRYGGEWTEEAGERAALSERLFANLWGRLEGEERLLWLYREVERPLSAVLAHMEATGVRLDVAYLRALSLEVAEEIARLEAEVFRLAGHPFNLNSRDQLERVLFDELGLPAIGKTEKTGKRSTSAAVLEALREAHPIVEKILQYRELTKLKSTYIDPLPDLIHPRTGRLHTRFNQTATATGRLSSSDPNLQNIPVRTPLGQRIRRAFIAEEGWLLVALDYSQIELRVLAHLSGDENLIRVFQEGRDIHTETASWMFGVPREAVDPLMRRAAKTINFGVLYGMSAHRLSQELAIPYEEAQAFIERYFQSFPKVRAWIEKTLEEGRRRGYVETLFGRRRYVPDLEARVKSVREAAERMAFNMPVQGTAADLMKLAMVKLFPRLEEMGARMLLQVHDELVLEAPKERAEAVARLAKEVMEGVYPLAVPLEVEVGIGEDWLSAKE
Experimental: The triphosphates of the 6 group were prepared from the previously reported nucleosides (Kubelka, T., Slavetinska, L., Eigner, V. and Hocek, M. Synthesis of 2,6-disubstituted pyridin-3-yl C-2′-deoxyribonucleosides through chemoselective transformations of bromo-chloropyridine C-nucleosides. Org. Biomol. Chem., 11, 4702-4718) according to Ludwig, J. and Eckstein, F. Rapid and efficient synthesis of nucleoside 5′-0-(1-thiotriphosphates), 5′-triphosphates and 2′,3′-cyclophosphorothioates using 2-chloro-4H-1,3,2-benzodioxaphosphorin-4-one. J. Org. Chem., 54, 631-635. The purity of all other triphosphates was confirmed by MALDI-TOF and UV-VIS. Taq and OneTaq DNA polymerases were purchased from New England Biolabs (Ipswich, Mass.). A mixture of dNTPs was purchased from Fermentas (Glen Burnie, Md.). SYBR Green I Nucleic Acid Gel Stain (10,000×) was purchased from Life Technologies (Carlsbad, Calif.). The synthesis of the DNA templates, D8 (Malyshev, D. A., Dhami, K., Quach, H. T., Lavergne, T., Ordoukhanian, P., Torkamani, A. and Romesberg, F. E. Efficient and sequence-independent replication of DNA containing a third base pair establishes a functional six-letter genetic alphabet. Proc. Natl. Acad. Sci. USA, 109, 12005-12010), used for screening rounds 1-5, and D6 (Malyshev, D. A., Seo, Y. J., Ordoukhanian, P. and Romesberg, F. E. PCR with an expanded genetic alphabet. J. Am. Chem. Soc., 131, 14620-14621), used for all other amplifications, was described previously. Sanger sequencing was carried out as described previously (Malyshev, D. A., Dhami, K., Quach, H. T., Lavergne, T., Ordoukhanian, P., Torkamani, A. and Romesberg, F. E. Efficient and sequence-independent replication of DNA containing a third base pair establishes a functional six-letter genetic alphabet. Proc. Natl. Acad. Sci. USA, 109, 12005-12010). Raw Sanger sequencing traces were used to determine the percent retention of the unnatural base pairs, which was converted to fidelity per doubling, as described (Malyshev, D. A., Dhami, K., Quach, H. T., Lavergne, T., Ordoukhanian, P., Torkamani, A. and Romesberg, F. E. Efficient and sequence-independent replication of DNA containing a third base pair establishes a functional six-letter genetic alphabet. Proc. Natl. Acad. Sci. USA, 109, 12005-12010; Malyshev, D. A., Seo, Y. J., Ordoukhanian, P. and Romesberg, F. E. PCR with an expanded genetic alphabet. J. Am. Chem. Soc., 131, 14620-14621).
All PCR amplifications were performed in a CFX Connect Real-Time PCR Detection System (Bio-Rad), in a total volume of 25 μL using the following conditions: 1× OneTaq reaction buffer, 0.5× Sybr Green I, MgSO4 adjusted to 4.0 mM, 0.2 mM of each dNTP, 50 μM of each unnatural triphosphate, […] of Primer1 and Primer2 (See Table 2), and 0.02 U/μl of the DNA polymerase. Other conditions specific for each round of screening are described in Table 3. Amplified products were purified using DNA Clean and Concentrator-5 spin columns from Zymo Research (Irvine, Calif.). After purification, the PCR products were sequenced on a 3730 DNA Analyzer (Applied Biosystems) to determine the retention of the unnatural base pair as described below. Fidelity was characterized from unnatural base pair (UBP) retention as determined by sequencing with Primer1 on a 3730 DNA Analyzer (Applied Biosystems).
Specific PCR assay conditions. PCR with the most promising UBPs was carried out with the conditions as described in Table 3. PCR products were further purified on […] gels, followed by single band excision and subsequent clean up using the Zymo Research Zymoclean Gel DNA Recovery Kit. After elution with 20 μl of water, the DNA concentration was measured using fluorescent dye binding (Quant-iT dsDNA HS Assay kit, Life Technologies), and purified amplicons were sequenced in triplicate with both Primer1 and Primer2 to determine UBP retention and thus amplification fidelity. […]

SMILES | UBP retention, sixth round of screening
COc1cc(I)c(F)cc1[C@H]1C[C@H](O)[C@@H](COP(=O)(O)OP(=O)(O)OP(=O)(O)O)O1.O=P(O)(O)OP(=O)(O)OP(=O)(O)OC[C@H]1O[C@@H](n2cc(F)c3ccsc3c2=S)C[C@@H]1O [FTPT3-FIMO] | > 96%
COc1cc(I)c(F)cc1[C@H]1C[C@H](O)[C@@H](COP(=O)(O)OP(=O)(O)OP(=O)(O)O)O1.O=P(O)(O)OP(=O)(O)OP(=O)(O)OC[C@H]1O[C@@H](n2ccc3ccsc3c2=S)C[C@@H]1O [TPT3-FIMO] | > 96%

same assay, conditions: Taq, D8 template (0.1 ng), 16 cycles; individual triphosphates

SMILES | UBP retention, fifth round of screening
COc1cc(C#N)ccc1[C@H]1C[C@H](O)[C@@H](COP(=O)(O)OP(=O)(O)OP(=O)(O)O)O1.O=P(O)(O)OP(=O)(O)OP(=O)(O)OC[C@H]1O[C@@H](n2cc(F)c3ccsc3c2=S)C[C@@H]1O [FTPT3-CNMO] | ≥ 90%
C#Cc1cc(OC)c([C@H]2C[C@H](O)[C@@H](COP(=O)(O)OP(=O)(O)OP(=O)(O)O)O2)cc1F.O=P(O)(O)OP(=O)(O)OP(=O)(O)OC[C@H]1O[C@@H](n2cc(F)c3ccsc3c2=S)C[C@@H]1O [FTPT3-FEMO] | ≥ 90%
COc1cc(I)c(F)cc1[C@H]1C[C@H](O)[C@@H](COP(=O)(O)OP(=O)(O)OP(=O)(O)O)O1.O=P(O)(O)OP(=O)(O)OP(=O)(O)OC[C@H]1O[C@@H](n2cc(F)c3ccsc3c2=S)C[C@@H]1O [FTPT3-FIMO] | ≥ 90%
COc1cc(I)ccc1[C@H]1C[C@H](O)[C@@H](COP(=O)(O)OP(=O)(O)OP(=O)(O)O)O1.O=P(O)(O)OP(=O)(O)OP(=O)(O)OC[C@H]1O[C@@H](n2cc(F)c3ccsc3c2=S)C[C@@H]1O [FTPT3-IMO] | ≥ 90%
COc1cc2ccccc2cc1[C@H]1C[C@H](O)[C@@H](COP(=O)(O)OP(=O)(O)OP(=O)(O)O)O1.O=P(O)(O)OP(=O)(O)OP(=O)(O)OC[C@H]1O[C@@H](n2cc(F)c3ccsc3c2=S)C[C@@H]1O [FTPT3-NaM] | ≥ 90%
COc1cc2ccccc2cc1[C@H]1C[C@H](O)[C@@H](COP(=O)(O)OP(=O)(O)OP(=O)(O)O)O1.O=P(O)(O)OP(=O)(O)OP(=O)(O)OC[C@H]1O[C@@H](n2ccc3ccccc3c2=S)C[C@@H]1O [SICS-NaM] | ≥ 90%
COc1cc2ccccc2cc1[C@H]1C[C@H](O)[C@@H](COP(=O)(O)OP(=O)(O)OP(=O)(O)O)O1.O=P(O)(O)OP(=O)(O)OP(=O)(O)OC[C@H]1O[C@@H](n2ccc3ncccc3c2=S)C[C@@H]1O [SNICS-NaM] | ≥ 90%
COc1cc(I)c(F)cc1[C@H]1C[C@H](O)[C@@H](COP(=O)(O)OP(=O)(O)OP(=O)(O)O)O1.O=P(O)(O)OP(=O)(O)OP(=O)(O)OC[C@H]1O[C@@H](n2ccc3ccsc3c2=S)C[C@@H]1O [TPT3-FIMO] | ≥ 90%
COc1cc2ccccc2cc1[C@H]1C[C@H](O)[C@@H](COP(=O)(O)OP(=O)(O)OP(=O)(O)O)O1.O=P(O)(O)OP(=O)(O)OP(=O)(O)OC[C@H]1O[C@@H](n2ccc3ccsc3c2=S)C[C@@H]1O [TPT3-NaM] | ≥ 90%
COc1cc(C(F)(F)F)ccc1[C@H]1C[C@H](O)[C@@H](COP(=O)(O)OP(=O)(O)OP(=O)(O)O)O1.O=P(O)(O)OP(=O)(O)OP(=O)(O)OC[C@H]1O[C@@H](n2cc(F)c3ccsc3c2=S)C[C@@H]1O [dFTPT3TP-dTfMOTP] | ≥ 90%
COc1cc(OC)c([C@H]2C[C@H](O)[C@@H](COP(=O)(O)OP(=O)(O)OP(=O)(O)O)O2)cc1F.Cc1cc2ccn([C@H]3C[C@H](O)[C@@H](COP(=O)(O)OP(=O)(O)OP(=O)(O)O)O3)c(=S)c2s1 [dTPT2TP-dFDMOTP] | ≥ 90%

tested on: OneTaq polymerase; assay: PCR-based screen and amplification of DNA containing unnatural base pairs, OneTaq (Example 1); type: biochemical; conditions: D6 template 10 pg, 24 cycles, 10 s extension
Experimental: The triphosphates of the 6 group were prepared from the previously reported nucleosides (Kubelka, T., Slavetinska, L., Eigner, V. and Hocek, M. Synthesis of 2,6-disubstituted pyridin-3-yl C-2′-deoxyribonucleosides through chemoselective transformations of bromo-chloropyridine C-nucleosides. Org. Biomol. Chem., 11, 4702-4718) according to Ludwig, J. and Eckstein, F. Rapid and efficient synthesis of nucleoside 5′-0-(1-thiotriphosphates), 5′-triphosphates and 2′,3′-cyclophosphorothioates using 2-chloro-4H-1,3,2-benzodioxaphosphorin-4-one. J. Org. Chem., 54, 631-635. The purity of all other triphosphates was confirmed by MALDI-TOF and UV-VIS. Taq and OneTaq DNA polymerases were purchased from New England Biolabs (Ipswich, Mass.). A mixture of dNTPs was purchased from Fermentas (Glen Burnie, Md.). […]
All PCR amplifications were performed in a CFX Connect Real-Time PCR Detection System (Bio-Rad), in a total volume of 25 μL using the following conditions: 1× OneTaq reaction buffer, 0.5× Sybr Green I, MgSO4 adjusted to 4.0 mM, 0.2 mM of each dNTP, 50 μM of each unnatural triphosphate, […] of Primer1 and Primer2 (See Table 2), and 0.02 U/μl of the DNA polymerase. […] Fidelity was characterized from unnatural base pair (UBP) retention as determined by sequencing with Primer1 on a 3730 DNA Analyzer (Applied Biosystems). […]

SMILES | UBP retention, sixth round of screening
C#Cc1cc(OC)c([C@H]2C[C@H](O)[C@@H](COP(=O)(O)OP(=O)(O)OP(=O)(O)O)O2)cc1F.O=P(O)(O)OP(=O)(O)OP(=O)(O)OC[C@H]1O[C@@H](n2ccc3ncccc3c2=S)C[C@@H]1O [SNICS-FEMO] | > 95%
